“And” between values parts separate entries of the source, which are not always exact repeats. Identical values can stand only once. Screen size: about 340,000 compounds; fewer than 10 were called active. The shares of active, inactive and inconclusive entries below differ from those in the screen. Calls come from the whole dose curve; as a rule, active = well fitted inhibition curve with a large enough effect in the main read-out, with a control signal flat (not every such curve was filed as active); inconclusive = small, poorly fitted or top-dose-only effect, or effect the other way, or a change in a side signal; inactive = no such curve, though single readings can be large or run the other way. Where the call is inconclusive, the potency comes from a doubtful curve fit. “Side channel” marks fits to a control or component signal instead of the main read-out.
target: Tumor susceptibility gene 101 protein (Homo sapiens) (UniProt Q99816); assay: qHTS Assay for Iinhibitors of HIV-1 Budding by Blocking the Interaction of PTAP/TSG101; conditions: Fluorescence polarization, FITC-PTAP peptide / Tsg101 binding; activity change, negative = inhibition: at 115 µM (top of the series); for activity change, negative = inhibition: % of control where 0% means no effect
Text: NIH Molecular Libraries Probe Production Network [MLPCN] NIH Chemical Genomics Center [NCGC] MLPCN Grant: 1 R03 MH087464-01A1 PI Name: Dr. Eric Freed, NCI NCGC Assay Overview: Stages of the HIV-1 replication cycle, specifically virus assembly and release, provide underexploited targets for the development of novel antiviral inhibitors. The late stages of HIV-1 replication are mediated by the Gag precursor protein, Pr55Gag. Expression of Pr55Gag is both necessary and sufficient for the production of virus-like particles from Gag-expressing cells. The Gag protein hijacks key host proteins involved in endocytic machinery of the host cell to promote endosomal processing and viral budding. The budding process requires a direct interaction between a […] (PTAP) motif in the p6 domain of Gag and the cellular endosomal sorting protein known as Tsg101. In this way, the Gag PTAP motif promotes the host cells to recruit viral particles to the plasma membrane where the new viral particles are released, effectively turning the host cells into viral factories. A fluorescence anisotropy assay has been developed to quantitatively measure the PTAP-Tsg101 interaction which can be used to screen for inhibitors of this interaction.
NCGC Assay Protocol Summary: Two uL of the Tsg101 binding domain in buffer (10 mM HEPES pH 7.5; 0.15 M NaCl, 0.01% Tween 20; 3 mM EDTA;0.1 mM TCEP) was dispensed into Greiner black MB 1536-well plates (final concentration 10 uM). Then, 23 nL of compounds or DMSO were delivered to each well using a pin tool. Finally, 2 uL of a FITC-labeled peptide containing the PTAP motif (1) in the same buffer was dispensed (50 nM final concentration) and the binding was allowed to proceed for 20 min. at r.t. Fluorescent polarization was determined using FITC excitation and polarized emission filters on a Perkin Elmer Viewlux. Keywords: Tsg101, PTAP, Gag, HIV, fluorescent polarization, MLSMR, MLPCN, NIH Roadmap, qHTS, NCGC
Potency is the fitted concentration of half-maximal effect; tags give direction and shape of the fitted curve or compound fluorescence and quenching.

Chain of UniProt Q99816 (Q99816 whole entry, looked up): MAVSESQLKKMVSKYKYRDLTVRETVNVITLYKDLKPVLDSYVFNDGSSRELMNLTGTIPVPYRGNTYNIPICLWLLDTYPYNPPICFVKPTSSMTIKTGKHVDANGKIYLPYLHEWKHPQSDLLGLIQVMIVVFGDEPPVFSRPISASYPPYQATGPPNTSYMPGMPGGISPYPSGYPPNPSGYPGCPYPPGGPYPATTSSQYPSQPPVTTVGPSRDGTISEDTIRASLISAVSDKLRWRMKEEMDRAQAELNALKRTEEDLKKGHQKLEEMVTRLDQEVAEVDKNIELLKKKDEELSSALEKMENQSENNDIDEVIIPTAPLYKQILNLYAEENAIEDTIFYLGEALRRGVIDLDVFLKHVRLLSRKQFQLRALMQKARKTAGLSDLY

Structure (SMILES) | activity change, negative = inhibition | Potency
CCOc1ccccc1NC(=O)C(=O)N/N=C/c1cc(Br)ccc1O | inactive: -5.92% | –
NS(=O)(=O)c1cccc(NC(=O)c2cccs2)c1 | inactive: -5.15% | –
O=C(/C=C/c1ccccc1)OCC(=O)N1CCCC1 | inactive: -8.35% | –
Cn1cccc1/C=C1\SC(=O)N(c2ccc(O)cc2)C1=O | – | inconclusive: 79.4 µM [fluorescent, side channel, partial curve, poor fit]
Cc1c(Cl)c([N+](=O)[O-])nn1CC(=O)N1CCCc2ccccc21 | – | inconclusive: 35.5 µM [quencher, side channel, full curve]
CCOC(=O)C(C(=O)OCC)c1cc(Br)c2noc3c2c1C(=O)c1ccccc1-3 | – | inconclusive: 56.2 µM [fluorescent, side channel, partial curve, poor fit]
COc1ccc(CN(C)CC(O)COc2ccc(C(=O)c3ccccc3)cc2)c(OC)c1OC (centres undefined) | inactive: -0.664% | –
Nc1cccc(N2C(=O)c3cccc4c(N)ccc(c34)C2=O)c1 | – | inconclusive: 50.1 µM [fluorescent, side channel, partial curve, poor fit]
CCC(=O)N1N=C(c2ccc(C)o2)CC1c1ccc(OC)cc1 (centres undefined) | inactive: 1.75% | –
Cn1c(SCC(=O)NC2CC2)nnc1-c1ccccc1 | inactive: -2.73% | –
Cc1sc2nc(CSc3nnnn3-c3ccc(Cl)cc3)[nH]c(=O)c2c1C | – | inconclusive: 79.4 µM [fluorescent, side channel, partial curve, poor fit]
Cc1ccc(NC(=O)COC(=O)C2=COCCO2)cc1 | inactive: -0.148% | –
Oc1ccc2ccccc2c1C=Nc1ccc(N2CCOCC2)cc1 | – | inconclusive: 31.6 µM [fluorescent, side channel, full curve]
Fc1cc(F)c(C2SCCN2C(=S)Nc2cccc(C(F)(F)F)c2)c(F)c1 (centres undefined) | inactive: 0.293% | –
CCCCCCc1cc2cc(-c3nnc(-c4cc(OC)c(OC)c(OC)c4)o3)c(=O)oc2cc1O | – | inconclusive: 3.55 µM [fluorescent, side channel, full curve, poor fit]
CCCCCCCCCCCCN1[C@@H](CC(=O)OC)c2cc(F)cc(F)c2S1(=O)=O | – | inconclusive: 44.7 µM [quencher, side channel, partial curve, poor fit]
N#C/C(=C\c1ccc(N2CCOCC2)o1)C(=O)NC1CCCCC1 | – | inconclusive: 56.2 µM [fluorescent, side channel, partial curve, poor fit]
COc1ccc(C2=CC(=O)C[C@H](c3ccc(F)cc3)C2)c(F)c1F | inactive: 2.43% | –
COc1cc([N+](=O)[O-])cc(/C=N/NC(=O)c2cncc(Br)c2)c1O | inactive: -2.56% | –
COc1cc(/C=C2/SC(=S)N(Cc3ccccc3)C2=O)cc(Cl)c1O | – | inconclusive: 11.2 µM [fluorescent, side channel, full curve, poor fit]
Oc1ccc(-c2nc(-c3ccc(O)c(O)c3)cs2)cc1 | inactive: -0.255% | –
O=c1[nH]cnc2c1ccn2C1OC(CO)C(O)C1O (centres undefined) | inactive: -0.731% | –

Structure (SMILES) | activity change, negative = inhibition | Potency
Cn1c2c(c(=O)n(C)c1=O)C(c1ccccc1Cl)C(C#N)=C(N)O2 (centres undefined) | inactive: -2.36% | –
CCOc1ccccc1NC(=O)Cn1nnc(C(=O)NCc2ccc3c(c2)OCO3)c1N | inactive: -3.01% | –
Nc1ccc(-c2c3ccc(=O)cc-3oc3cc(O)ccc23)cc1C(=O)O | – | inconclusive: 50.1 µM [fluorescent, partial curve, poor fit]
CC(C)Oc1ccc(C(=O)OC(C)C(=O)NC2CCCCC2C)cc1 (centres undefined) | inactive: -4.98% | –
CCOC(=O)CCc1c(C)nc2c(c(C)nn2-c2ccccc2)c1C | – | inconclusive: 79.4 µM [fluorescent, side channel, partial curve, poor fit]
O=c1c(/C=C(\O)c2ccccc2)nc2ccccc2n1-c1ccccc1 | – | inconclusive: 79.4 µM [fluorescent, side channel, partial curve]
Cc1ccccc1C1c2[nH]c3ccccc3c2CCN1Cc1cccn1-c1ncccn1 (centres undefined) | inactive: -1.15% | –
CC(=O)c1ccc(N2CCN(c3ccc(C(F)(F)F)cn3)CC2)cc1 | inactive: 0.373% | –
Oc1[nH]c2ccc(Br)cc2c1N=Nc1ccc(F)cc1 | – | inconclusive: 56.2 µM [fluorescent, side channel, partial curve, poor fit]
CN(C)S(=O)(=O)c1ccc(N2CCCC2)c(C(=O)N2CCN(S(=O)(=O)c3ccc(F)c(F)c3)CC2)c1 | – | inconclusive: 89.1 µM [fluorescent, partial curve, poor fit]
Cc1ccc(-c2[nH]ncc2/C=N/n2c(COc3ccccc3C)nc3ccccc3c2=O)cc1 | inactive: 2.31% | –
CCOC(=O)CC1C(=O)NCCN1c1nc2ccc(C)cn2c(=O)c1/C=C1\SC(=S)N(CC(C)C)C1=O (centres undefined) | – | inconclusive: 2.82 µM [fluorescent, full curve, poor fit]
O=C(Nc1c(F)cc(F)cc1Br)c1cc(S(=O)(=O)N2CCN(c3ccccn3)CC2)ccc1F | inactive: 2.1% | –
O=C(NNc1nc(-c2ccccc2)cs1)c1ccco1 | inactive: -4.3% | –
Cn1cccc1/C=C1\SC(=S)N(CC(=O)O)C1=O | – | inconclusive: 50.1 µM [fluorescent, partial curve, poor fit]
Cc1c(C(=O)O)sc2nc(-c3cccs3)cc(C(F)(F)F)c12 | inactive: -1.88% | –
Cc1nn(C)c(C)c1N1C(=O)c2cccc3c(N)ccc(c23)C1=O | – | inconclusive: 44.7 µM [fluorescent, side channel, partial curve]
Cc1c(N=C2N=C(NC(=O)Nc3ccc(Cl)cc3)c3ccccc32)c(=O)n(-c2ccccc2)n1C | – | inconclusive: 63.1 µM [fluorescent, side channel, partial curve, poor fit]
COCCN1C(=O)/C(=C/c2ccc(N3CCCC3)cc2)SC1=S | – | inconclusive: 10 µM [fluorescent, side channel, full curve, poor fit]
N#C/C(=C/c1ccc(N2CCCCC2)o1)C(=O)Nc1ccc(Cl)cc1 | inactive: 20.4% | –
N#CC1(C#N)C(c2ccccc2)OC23CCCCC2C1(C#N)C(=N)O3 (centres undefined) | – | inconclusive: 56.2 µM [fluorescent, side channel, partial curve, poor fit]
CCOc1ccc(S(=O)(=O)N/N=C2/CCCC(=O)C2)cc1 | inactive: -4.12% | –

Structure (SMILES) | activity change, negative = inhibition | Potency
CCCCn1nc(NC(=O)CC)c2cc3cc(OC)ccc3nc21 | inactive: -0.0765% | –
CCCCOc1ccc(/C=C2/Sc3ccccc3C2=O)cc1 | – | inconclusive: 89.1 µM [fluorescent, side channel, partial curve]
COc1ccc(NC(=O)C(=O)NCC2CCCN2S(=O)(=O)c2ccc(C)cc2)cc1 (centres undefined) | inactive: -6.2% | –
COc1ccc(C(C#N)=C2C=CC(=NO)C=C2)cc1 | inconclusive: 59.8% [activator] | –
Cc1ccc(N=Cc2sc(O)c3ccccc23)cc1 | – | inconclusive: 56.2 µM [fluorescent, side channel, partial curve, poor fit]
COC(=O)C1=C(C)NC(C)=C(C(=O)O[C@@H]2CCCN(Cc3ccccc3)C2)[C@@H]1c1cccc([N+](=O)[O-])c1 | – | inconclusive: 14.1 µM [quencher, side channel, partial curve, poor fit]
Cn1c(=O)n(Cc2ccccc2)c(=O)c2c1nc1n2CCCN1CCc1ccccc1 | inactive: 1.71% | –
CCN(CC)c1ccc2cc(-c3nnc(-c4ccncc4)o3)c(=O)oc2c1 | – | inconclusive: 44.7 µM [fluorescent, side channel, partial curve, poor fit]
O=c1oc2ccccc2n1CCn1c2ccccc2c2nc3ccccc3nc21 | inactive: -5.41% | –
CCN1CCN(Cc2c(O)ccc3c2O/C(=C\c2ccc(C)cc2)C3=O)CC1 | – | inconclusive: 56.2 µM [fluorescent, side channel, partial curve, poor fit]
N#Cc1ccc(OCC(=O)N2CCN(S(=O)(=O)c3cccs3)CC2)cc1 | inactive: -3% | –
CC(C)C[C@H](NC(=O)c1[nH]cnc1C(=O)N[C@@H](Cc1ccccc1)C(=O)OC(C)(C)C)C(=O)OC(C)(C)C | – | inconclusive: 28.2 µM [quencher, side channel, partial curve, poor fit]
Fc1ccc(C2=CC(c3ccco3)n3ncnc3N2)cc1 (centres undefined) | – | inconclusive: 79.4 µM [falling, partial curve, poor fit]
COC(=O)c1ccc(N=C2SCC(=O)N2C)cc1 | inactive: -4.51% | –
S=C(NCc1ccccc1)Nc1cccc(Cl)c1 | – | inconclusive: 89.1 µM [falling, single point]
Cn1cc(/C=C(\C#N)C(=O)Nc2ccccc2O)c2ccccc21 | – | inconclusive: 89.1 µM [falling, single point]
CC1=C(C(=O)Nc2ccccc2)C(c2ccc(C(C)C)cc2)N2C(=O)CSC2=N1 (centres undefined) | – | inconclusive: 89.1 µM [quencher, side channel, partial curve, poor fit]
COc1ccc(-c2cc(C(F)(F)F)c3c(n2)sc2c(O)cc(=O)[nH]c23)c(OC)c1 | – | inconclusive: 28.2 µM [fluorescent, side channel, partial curve, poor fit]
O=c1ccc2cc3c4c(c2o1)CCCN4CCC3 | – | inconclusive: 56.2 µM [fluorescent, side channel, partial curve, poor fit]
Cc1c(N=C2Nc3cccc4cccc2c34)c(=O)n(-c2ccccc2)n1C | – | inconclusive: 89.1 µM [fluorescent, side channel, single point] and inconclusive: 79.4 µM [fluorescent, side channel, single point]

— PubChem BioAssay AID493005 (National Center for Advancing Translational Sciences (NCATS), 2010)
